The values that follow come from paper PMC4336329 (PLoS ONE, 2015).

Out of some 310,000 compounds screened, about 14,000 (4.5%) showed an effect of 50% or more. The effect is printed as a negative number. Some of the results follow.
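Further: peak tail current of the secondary pulse compared with the same well before compound.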

For the assay, the target named is human ether-à-go-go-related gene (hERG) potassium channel (human, UniProt Q12809). The experiment in a line: primary screen, population patch clamp on CHO cells stably expressing hERG.
Chain of human ether-à-go-go-related gene (hERG) potassium channel (Q12809 whole entry, looked up): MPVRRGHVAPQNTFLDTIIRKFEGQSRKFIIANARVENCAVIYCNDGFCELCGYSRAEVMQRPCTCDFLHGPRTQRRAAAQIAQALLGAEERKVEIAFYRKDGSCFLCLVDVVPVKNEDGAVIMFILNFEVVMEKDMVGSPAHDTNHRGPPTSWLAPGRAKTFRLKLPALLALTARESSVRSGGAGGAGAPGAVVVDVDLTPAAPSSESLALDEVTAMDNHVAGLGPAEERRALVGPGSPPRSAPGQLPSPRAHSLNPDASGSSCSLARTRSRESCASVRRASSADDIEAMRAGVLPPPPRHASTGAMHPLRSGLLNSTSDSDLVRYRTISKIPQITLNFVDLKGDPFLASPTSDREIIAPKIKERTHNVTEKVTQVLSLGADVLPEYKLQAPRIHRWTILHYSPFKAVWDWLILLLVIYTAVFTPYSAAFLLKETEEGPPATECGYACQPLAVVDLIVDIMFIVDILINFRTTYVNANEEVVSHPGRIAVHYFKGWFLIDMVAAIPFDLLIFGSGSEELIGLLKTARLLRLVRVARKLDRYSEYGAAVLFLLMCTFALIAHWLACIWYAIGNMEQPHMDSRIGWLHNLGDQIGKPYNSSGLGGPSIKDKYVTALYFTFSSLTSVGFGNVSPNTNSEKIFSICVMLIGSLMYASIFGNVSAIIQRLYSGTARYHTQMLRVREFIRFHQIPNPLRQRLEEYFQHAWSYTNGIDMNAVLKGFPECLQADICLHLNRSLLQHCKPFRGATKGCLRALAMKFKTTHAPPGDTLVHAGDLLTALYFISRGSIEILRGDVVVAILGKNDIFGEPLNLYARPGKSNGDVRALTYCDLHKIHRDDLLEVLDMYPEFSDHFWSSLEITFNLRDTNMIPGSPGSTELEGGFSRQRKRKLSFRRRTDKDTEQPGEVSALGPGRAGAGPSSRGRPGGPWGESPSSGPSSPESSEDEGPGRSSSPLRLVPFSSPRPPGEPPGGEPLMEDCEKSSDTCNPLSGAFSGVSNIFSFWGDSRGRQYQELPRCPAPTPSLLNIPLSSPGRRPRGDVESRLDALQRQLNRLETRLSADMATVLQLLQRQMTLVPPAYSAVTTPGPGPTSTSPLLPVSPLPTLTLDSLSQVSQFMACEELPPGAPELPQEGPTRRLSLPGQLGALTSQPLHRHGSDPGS
Regarding `COc1ccc(C(=O)NCC(=O)OCC(=O)c2ccc(Cl)cc2)cc1OC`, the “hERG current change (%, negative = inhibition) at 10uM” value is recorded as -58.6%. As for `CCC(=O)c1cc(F)c(N2CCN(C(=O)Cc3ccccc3)CC2)cc1C`, the figure is -58.9%. For the compound `CCSc1ccccc1C(=O)NCc1ccco1`, the “hERG current change (%, negative = inhibition) at 10uM” value turned out to be 1.46%. As for `Cn1c(SCC(=O)n2c3c(c4ccccc42)CCCC3)nnc1-c1ccccc1`, the figure is -18.1%.

In the case of `O=C(Cn1nc(C(=O)O)c2ccccc2c1=O)NCc1ccco1`, the “hERG current change (%, negative = inhibition) at 10uM” value worked out at 1.95%. In the case of `CC1=Nc2cc(C(=O)N3CCCC3)ccc2Sc2c(C)ccc(C)c21`, the “hERG current change (%, negative = inhibition) at 10uM” value is listed as -19.5%.

In the case of `Cc1cc(C)c(C)c(S(=O)(=O)NCC(=O)O)c1C`, the “hERG current change (%, negative = inhibition) at 10uM” value is listed as -1.47%. Next, `CN(Cc1cnccn1)C(=O)CC1C(=O)NCCN1Cc1c(F)cccc1Cl` (stereo not shown): 62.6%. Take `COc1cc(C(C(=O)NC2CCCCC2)N(C(=O)Cc2c[nH]c3ccccc23)c2ccccc2C)cc(OC)c1OC` (stereo not shown): the “hERG current change (%, negative = inhibition) at 10uM” value is recorded as -1.26%. As for `O=C(NN=C1CCCCC1)NC1CCCCC1`, the figure is 9.13%; as for `CC(=O)c1cccc(CN2CCc3ccc(NC(=O)C4CCCO4)cc3C2)c1` (stereo not shown), 2.44%.

`COC(=O)c1c(C)nn(-c2ccc(OC(F)(F)F)cc2)c1-c1snnc1C`: the “hERG current change (%, negative = inhibition) at 10uM” value is reported as -15.4%. Next, `Cc1nc2ccccc2nc1Nc1cccc(Cl)c1`: 9.24%. Next, `CCCCCN(C(=O)CCC(=O)OCC(=O)c1ccc(C(C)CC)cc1)c1c(N)n(CCCC)c(=O)[nH]c1=O` (stereo not shown): 8.1%; `N#Cc1ccccc1NC(=O)CSc1cn[nH]n1`: 7.74%. Take `CCOC(=O)c1c(C)[nH]c(C(=O)/C(C#N)=C/c2ccc(OCC)cc2)c1C`: the “hERG current change (%, negative = inhibition) at 10uM” value turned out to be 8.16%.

Turning to `CCN(CC)S(=O)(=O)c1cccc(NC(=O)COC(=O)c2cccs2)c1`, the “hERG current change (%, negative = inhibition) at 10uM” value is listed as -32.5%.

Consider `Cc1ccc(S(=O)(=O)N2CCCOC2CNC(=O)C(=O)NC2CCCC2)cc1` (stereo not shown), for which the “hERG current change (%, negative = inhibition) at 10uM” value is -6.95%. As for `CN(CCCNC(=O)C1CCN(S(=O)(=O)c2cccc3nsnc23)CC1)Cc1ccccc1`, the figure is -20.8%; as for `COCCNc1nc2nonc2nc1N1CCCC1c1nccs1` (stereo not shown), 9.27%. Next, `O=C(C1=C[C@H](C2CC2)C[C@H](OCCCCO)O1)N1CCN(Cc2ccccc2)CC1`: -12.5%; `CCCCSCc1ccc(C(=O)O)o1`: 1.25%; `C/C(=N/NS(=O)(=O)c1ccc(C(C)C)cc1)c1ccncc1`: -0.0607%. Next, `COC(c1ccccc1)c1nnc(CCC(=O)NC2C3CC4CC(C3)CC2C4)o1` (stereo not shown): -3.85%. As to `COCc1ccc(C(=O)NCC2(N3CCCCC3)CCCCC2)cc1.O=C(O)C(=O)O`, the “hERG current change (%, negative = inhibition) at 10uM” value is listed as -22.5%.

In the case of `CCCn1nc2cc(C(=O)NCc3ccc(OC)cc3)ccc2c1OCC`, the “hERG current change (%, negative = inhibition) at 10uM” value worked out at 2.65%.

For `Cn1c(=NC(=O)c2ccccc2[N+](=O)[O-])sc2cc(S(C)(=O)=O)ccc21`, the “hERG current change (%, negative = inhibition) at 10uM” value was -4.33%. As for `Cc1ccccc1-c1cc(=O)c2c(O)cccc2o1`, the figure is 13.4%; as for `O=C(NCCc1ccccc1)c1c(O)c2ccccc2[nH]c1=O`, 29.5%.

Consider `Nc1ccccc1SC1CC(=O)N(c2ccc3c(c2)OCO3)C1=O` (stereo not shown), for which the “hERG current change (%, negative = inhibition) at 10uM” value was found to be 14.7%.

Turning to `O=C(NC1CCN(Cc2ccccc2)CC1)c1ccc(CS(=O)c2ccc(F)cc2)o1` (stereo not shown), the “hERG current change (%, negative = inhibition) at 10uM” value is listed as -22.4%. As for `O=C(NC(=S)Nc1ccccc1)c1csnn1`, the figure is 12.4%; as for `CN(C)CCNC(=O)NC1CCCCC1`, 7.79%. As to `CCCCN(C(=O)c1ccccc1F)c1c(N)n(CCC)c(=O)[nH]c1=O`, the “hERG current change (%, negative = inhibition) at 10uM” value amounted to 23.4%. As for `COCCN1C(=O)N[C@@H](c2cccc(F)c2)C(C(C)=O)=C1C`, the figure is -6.66%; as for `Cl.c1ccc(CN2CCN(C3CCCSc4ccccc43)CC2)cc1` (stereo not shown), -8.41%. For the compound `CCCCc1nc(NCc2ccccc2)c(C#N)c2c1CCCC2`, the “hERG current change (%, negative = inhibition) at 10uM” value was -14.5%. As for `Fc1ccccc1CSc1nnc(-c2cnccn2)n1Cc1ccco1`, the figure is -11.2%; as for `CCC(C)[C@H](Nc1nc(-c2ccccc2)nc2c1oc1ccccc12)C(=O)O.Cl` (stereo partly shown), 9.37%.

For `O=C(NCc1ccccn1)c1c(O)c2cccc3c2n(c1=O)CC3`, the “hERG current change (%, negative = inhibition) at 10uM” value is given as -11.5%. As for `C=CCN1c2ccccc2[C@]23C[C@@H](C(=O)OC)N(C(=O)C4CCC4)C2=NC(C(=O)OC)=C(C(=O)OC)[C@H]13`, the figure is -12.3%; as for `O=C(NCCCCCNC(=O)c1ccccn1)c1ccccn1`, 29.2%; as for `O=S(=O)(NCCc1ccccc1)c1cccc2nsnc12`, -21.2%. As for `CC1=NN(C(=O)c2ccc(Cn3nc(C)c([N+](=O)[O-])c3C)cc2)C(O)(C(F)(F)F)C1` (stereo not shown), the figure is -28.8%; as for `Cc1cc(N(CN2CCCC2=O)C(=O)c2ccc(F)cc2)no1`, -9.46%; as for `CCC(Cc1ccccc1)NC(=O)/C=C/c1ccco1` (stereo not shown), 9.2%.

As to `CC(=O)Nc1ccc(NC(=O)c2c(C)nn(Cc3ccccc3)c2Cl)cc1`, the “hERG current change (%, negative = inhibition) at 10uM” value is 3.78%. As to `CCOn1c(=O)c(-c2ccc(C)cc2)[n+]([O-])c2ccccc21`, the “hERG current change (%, negative = inhibition) at 10uM” value turned out to be 19.9%. Next, `O=C(CCSCCC(=O)Nc1ccccc1F)Nc1ccccc1F`: 3.3%; `C=CCn1c(SCC(=O)N(CC)CC)nc(O)cc1=O`: 13.2%; `Cc1cc(NC(=O)CSc2nc(-c3cccs3)cc(C(F)(F)F)n2)no1`: 13.3%. Next, `CC(C)COP(=O)(c1ccc(N(C)C)cc1)C(Nc1ccccc1)c1ccccc1` (stereo not shown): -7.2%. As for `CCn1nc(C(C)C)cc1C(=O)N1CCCC(CO)(Cc2ccc(F)cc2F)C1` (stereo not shown), the figure is -13.1%; as for `CCOC(=O)c1c(-c2ccc(C)cc2)csc1NC(=O)CCSc1nnc2ccccn12`, 13.3%; as for `O=c1[nH]cnc2nc(-c3ccccc3)c(-c3ccccc3)nc12`, -24.1%.

Regarding `Cc1nc2sc3c(c2c(=O)o1)CCC3`, the “hERG current change (%, negative = inhibition) at 10uM” value is reported as 4.18%. Next, `CN(C)c1nc(NCc2ccccc2)nc(N/N=C/c2ccc(Br)cc2)n1`: 13.3%; `CC(C)C[C@H]1C(=O)N2CCC[C@H]2[C@]2(O)O[C@](NC(=O)[C@@H]3C=C4c5cccc6[nH]c(Br)c(c56)CC4N(C)C3)(C(C)C)C(=O)N12.CS(=O)(=O)O` (stereo partly shown): 9.86%; `CC(C)(C)c1ccc(-c2csc(NC(=O)CN3C(=O)NC4(CCCCC4)C3=O)n2)cc1`: 18%. `CCOC(=O)N1CCC(c2cc(=O)n3[nH]ccc3n2)CC1`: the “hERG current change (%, negative = inhibition) at 10uM” value is on record as -3.47%. On to `CSc1nc(SCC(=O)NCc2ccco2)c2c3c(sc2n1)COC(C)(C)C3`, for which the “hERG current change (%, negative = inhibition) at 10uM” value is -19.2%.

`Cc1nc(SCc2ccccc2F)c2cnn(-c3ccccc3)c2n1`: the “hERG current change (%, negative = inhibition) at 10uM” value worked out at 13%. Next, `CCCCNC(=O)N1CCN(c2ccccc2OC)CC1`: 5.56%.

For `CC(C)COc1ccc(CSCCNC(=S)Nc2ccccc2)cc1`, the “hERG current change (%, negative = inhibition) at 10uM” value was determined as 12.6%. Turning to `O=C(Nc1sc2c(c1C(=O)O)CCC2)c1cccs1`, the “hERG current change (%, negative = inhibition) at 10uM” value is on record as 20.3%. As for `COc1ccc(/C(C)=N/Nc2ncc(Cl)cc2Cl)c(O)c1`, the figure is -5.66%; as for `O=C(NC1CCCCC1)c1cc(S(=O)(=O)N2CCCC2)ccc1Cl`, 2.24%; as for `Cc1nc2c(c(=O)c3ccccc3n2C)c(=O)n1-c1ccccc1`, 1.57%.

With `COc1ccc(-c2[nH]ncc2CN2CCCC2c2nonc2C)c(F)c1` (stereo not shown), the “hERG current change (%, negative = inhibition) at 10uM” value came out at 3.15%. As for `CC(C)C(NC(=O)c1cccs1)C(=O)NC1=NCCS1` (stereo not shown), the figure is 7.5%.

As to `COc1ccc(Nc2nc(N)c([N+](=O)[O-])c(NCCO)n2)cc1`, the “hERG current change (%, negative = inhibition) at 10uM” value is -3.25%.

With `Cc1cc(=O)oc2c3c(cc(OCC(=O)NCc4ccccn4)c12)OC(C)(C)CC3`, the “hERG current change (%, negative = inhibition) at 10uM” value was -26.5%.

On to `CC(C)(C)CNc1cc(N2CCOCC2)ccc1[N+](=O)[O-]`, for which the “hERG current change (%, negative = inhibition) at 10uM” value is -6.56%.

With `COc1cc(OC)cc(C(=O)N2CC(=O)Nc3ccccc32)c1`, the “hERG current change (%, negative = inhibition) at 10uM” value came out at 8.35%. As for `CC(=O)c1ccc(N2CCN(C(=O)COc3ccc(F)cc3)CC2)c(F)c1`, the figure is -71.5%. As for `CC1(C)CC(=O)C2=C(C1)N(Cc1ccccc1)C(=O)C2(NC(=O)C(C)(C)C)C(F)(F)F` (stereo not shown), the “hERG current change (%, negative = inhibition) at 10uM” value is listed as -13.8%. Next, `Cc1csc(=O)n1CCC(=O)OCC(=O)NNC(=O)c1ccccc1`: -15.4%; `COc1ccc(S(=O)(=O)Nc2c(C)n(C)n(-c3ccccc3)c2=O)cc1Br`: -6.83%. Next, `Cc1ccc2cccc(O)c2[n+]1[O-]`: 4.03%; `CC(C)OC(=O)CC1C(=O)NCCN1C(=S)NC(=O)c1ccc(F)cc1` (stereo not shown): -1.92%. As for `CS(=O)(=O)N(Cc1ccc(C(=O)N2CCc3ccccc3C2)cc1)c1ccccc1`, the figure is -13.1%; as for `Cc1ccc2nsnc2c1NS(=O)(=O)c1c(C)ccc2nsnc12`, -26.2%; as for `Cc1ccc(N2C(=O)c3ccc(C(=O)Nc4cccnc4)cc3C2=O)c(C)c1`, -3.01%. Turning to `COC(=O)c1[nH]c2cc(OC)ccc2c1NC(=O)c1ccc2c(c1)OCO2`, the “hERG current change (%, negative = inhibition) at 10uM” value is recorded as -0.956%. With `COC(=O)CCCC1=CC2=C(c3ccccc3)C(=O)C(C)(OC(=O)C3CCCC3)C(=O)C2=CN1c1ccccc1` (stereo not shown), the “hERG current change (%, negative = inhibition) at 10uM” value is on record as -8.8%. Next, `Cn1ncc(Br)c1C(=O)N/N=C/c1cccc(OC2CSC2)c1`: -8.23%; `S=C1Nc2ccccc2Sc2ccccc21`: 21.7%. Next, `O=C(COC(=O)c1cc(S(=O)(=O)N2CCCC2)ccc1O)Nc1ccc(SC(F)F)cc1`: -57.5%.
